Sequences with one replicate were seen in a single cluster, so their values are uncertain.
Tested on: ATP
Test: switch fluorescence ratio, 500 uM ATP over buffer (Cy3 cluster intensity, sum of 5 cycles each) (fold (ratio)); higher = stronger signal-on switching upon ATP binding; sequences stand for … in TCGTCGGCAGCGTCAGATGTGTATAAGAGACAGTTTTTTTTTTTTTTTTTTTTTTTTT…TC
Conditions: aptamer strand: ATP DNA aptamer (quencher-CACCTGGGGGAGTATTGCGGAGGAAGG + anchor), 100 nM annealed; ATP concentration: 500 uM; one replicate
Procedure, shortened: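 Clusters with intensities outside 100-1000 RFU were excluded. The remaining Cy3-labelled switching-strand clusters on a modified Illumina MiSeq flow-cell had been annealed to 100 nM quencher-labelled ATP aptamer and imaged in selection buffer, then after 15 min with 500 uM ATP at 22 °C, for five cycles separated by NaOH stripping and re-annealing. The fluorescence ratio, averaged per switch-domain sequence, is each cluster's summed target-cycle Cy3 intensity over its summed buffer-cycle Cy3 intensity.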
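Further: ATP exposure 15 min at 22 °C before imaging.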

TTGAACAAGT
switch fluorescence ratio: 1.04

GAGCAGGCCA
switch fluorescence ratio: 1.18

GGGAACTAC
switch fluorescence ratio: 1.03

AGGATGGCTA
switch fluorescence ratio: 1.02

GCTTTCCT
switch fluorescence ratio: 1.06

ATATAGCCAC
switch fluorescence ratio: 1.05

GCGAAAAGGC
switch fluorescence ratio: 1.03

TGTGTTAACG
switch fluorescence ratio: 1.01

CGCCCGGATA
switch fluorescence ratio: 1.06

CCTTAAGGGG
switch fluorescence ratio: 1.09

CTCCCTGATT
switch fluorescence ratio: 1.05

AACATAATCA
switch fluorescence ratio: 1.05

TAGCGTTGCT
switch fluorescence ratio: 0.967

TTCTAAATG
switch fluorescence ratio: 0.994

ATTGTCTCTC
switch fluorescence ratio: 1.04

GACTGGCGAG
switch fluorescence ratio: 1.03

GGAGTCTCTT
switch fluorescence ratio: 1

ATTGAGAAA
switch fluorescence ratio: 1.02

AGGTCAGTAC
switch fluorescence ratio: 1.28

TAGGTCTCAA
switch fluorescence ratio: 0.969

ATAGAGATTT
switch fluorescence ratio: 1.03

TTGGAAGAGA
switch fluorescence ratio: 1.02

AGCCGGTT
switch fluorescence ratio: 0.941

AGTCCCTGGT
switch fluorescence ratio: 1.03

ATAATTCACT
switch fluorescence ratio: 1

TACCGGGTAT
switch fluorescence ratio: 0.973

TCGGGCTGA
switch fluorescence ratio: 1.01

GTGGTAAGGA
switch fluorescence ratio: 0.944

AAGATGGGCA
switch fluorescence ratio: 1.15

GATAACGACC
switch fluorescence ratio: 1.22

TAGGCAAAT
switch fluorescence ratio: 0.989

CGGCTCGTTA
switch fluorescence ratio: 1.02

TTACAACCCT
switch fluorescence ratio: 1.16

CCCGGACATT
switch fluorescence ratio: 0.987

GCTCGACGAG
switch fluorescence ratio: 1.05

AGAAGCAACA
switch fluorescence ratio: 1.16

AACGGAAAAG
switch fluorescence ratio: 1.76

CGCTGTCCGT
switch fluorescence ratio: 1.06

TTAATCGACT
switch fluorescence ratio: 1.03

TTTTGTGTG
switch fluorescence ratio: 0.967

AAGGTTACC
switch fluorescence ratio: 1.05

GGCCCCCTAG
switch fluorescence ratio: 1.07

CAAGAGTCGT
switch fluorescence ratio: 0.973

GGAAGTGTTG
switch fluorescence ratio: 1

ATCAGGTGC
switch fluorescence ratio: 1.59

ACCAGCGACT
switch fluorescence ratio: 1.05

GGCATT
switch fluorescence ratio: 0.938

ATTTGGAATC
switch fluorescence ratio: 1.02

TCGTTTATTG
switch fluorescence ratio: 1.01

CACTTATCTC
switch fluorescence ratio: 1.01

GAATCCATA
switch fluorescence ratio: 1.02

GCGTAAGCCT
switch fluorescence ratio: 1.01

GGCTGGGCTC
switch fluorescence ratio: 1.03

CGCCGGTATG
switch fluorescence ratio: 1.01

GCATCTGGCA
switch fluorescence ratio: 0.988

GTATTCCGCG
switch fluorescence ratio: 1.09

GAGGCCAGTC
switch fluorescence ratio: 1.06

AGCTGGCCTA
switch fluorescence ratio: 1.03

ATGCCGTGAC
switch fluorescence ratio: 0.995

AGTCGGGGA
switch fluorescence ratio: 1.07

AAGGACCTCG
switch fluorescence ratio: 1.05

GGGGAAATTC
switch fluorescence ratio: 1.14

CAGCTGTTAC
switch fluorescence ratio: 2.33

GCAGTGCGAT
switch fluorescence ratio: 0.993

AAAAGGCTGG
switch fluorescence ratio: 1.02

ATAAGCCATG
switch fluorescence ratio: 1.03

CGTGCAGTTA
switch fluorescence ratio: 0.996

AACCTCTTCG
switch fluorescence ratio: 1.34

ACATCGCTGT
switch fluorescence ratio: 1.1

TGTTCTAATG
switch fluorescence ratio: 1.01

ACTAGGGCTT
switch fluorescence ratio: 1.02

AGAATGGTCA
switch fluorescence ratio: 1.03

GTATTTGTGT
switch fluorescence ratio: 0.993

GTTGGGATTT
switch fluorescence ratio: 0.952

AAAACTTGGC
switch fluorescence ratio: 1.03

CCGTGTCAAT
switch fluorescence ratio: 4.45

CGTGCCGGGC
switch fluorescence ratio: 1.01

CATAGAGTT
switch fluorescence ratio: 0.971

ATGGTGTATG
switch fluorescence ratio: 0.988

TAATTCATTA
switch fluorescence ratio: 1

CATTGTGTCT
switch fluorescence ratio: 0.964

CGACGTCAAA
switch fluorescence ratio: 2.76

TTCCTCGATG
switch fluorescence ratio: 1.06

CTGTTCGGGC
switch fluorescence ratio: 0.956

CTGTTATCGG
switch fluorescence ratio: 0.997

GCCGGTCTTT
switch fluorescence ratio: 0.986

AAGCCACTTG
switch fluorescence ratio: 1.05

CTCCAAGCGG
switch fluorescence ratio: 1.54

TGTAATTTTA
switch fluorescence ratio: 0.983

TTAGTCACCC
switch fluorescence ratio: 1.02

GCTGCCGATA
switch fluorescence ratio: 1.13

GGCGTCTATA
switch fluorescence ratio: 0.982

TAGCTCAAGC
switch fluorescence ratio: 1.05

GGTCTCTTAG
switch fluorescence ratio: 0.989

TGGTATACCC
switch fluorescence ratio: 1.02

AGGCCTACGT
switch fluorescence ratio: 0.998

AGATAGTGGA
switch fluorescence ratio: 0.989

AGTCGAGGCT
switch fluorescence ratio: 1.01

GTTAAATTAA
switch fluorescence ratio: 2.29

CTTCCTTGC
switch fluorescence ratio: 2.42

TATGTTCCAC
switch fluorescence ratio: 0.977

TATTACCAAC
switch fluorescence ratio: 1.13

GCGCTCGACC
switch fluorescence ratio: 1.28

TACGACATTA
switch fluorescence ratio: 1.18

CAGCTCTACC
switch fluorescence ratio: 1.09

GCGTGTATGC
switch fluorescence ratio: 1.06

ACGTGTAAGT
switch fluorescence ratio: 0.968

ACCATGCCTA
switch fluorescence ratio: 0.993

TGTCCCGGGA
switch fluorescence ratio: 0.982

AGTCTAGCTT
switch fluorescence ratio: 0.958

GTAGGGTAAT
switch fluorescence ratio: 0.948

GCAATAAACC
switch fluorescence ratio: 1.38

ATTTACCCGC
switch fluorescence ratio: 1.1

GGGCCCAACG
switch fluorescence ratio: 0.991

ACACCTGTTT
switch fluorescence ratio: 1.05

GCTATTTGGC
switch fluorescence ratio: 0.945

AGACATTGTA
switch fluorescence ratio: 0.999

CTCGTACAAT
switch fluorescence ratio: 1.24

CCTAATCGAA
switch fluorescence ratio: 0.989

TAAAATCGCC
switch fluorescence ratio: 1

TACCGTCCGG
switch fluorescence ratio: 1.01

GGCTATAGTC
switch fluorescence ratio: 1.05

CCATGACCCC
switch fluorescence ratio: 1.09

CCGCCGGAGC
switch fluorescence ratio: 2.43

TGATCCTCTT
switch fluorescence ratio: 1.01

GATTAAGTCT
switch fluorescence ratio: 0.993

TAAATTCCTT
switch fluorescence ratio: 1.03

AGCTTTGGCT
switch fluorescence ratio: 1.03

ATAAGATATA
switch fluorescence ratio: 1.07

AGGCAAATTG
switch fluorescence ratio: 1.05

TGCGAGCAGT
switch fluorescence ratio: 1.01

GTAGCTTATT
switch fluorescence ratio: 1.02

CACAAACGTA
switch fluorescence ratio: 1.32

CCTAAAGATT
switch fluorescence ratio: 1.05

AGACTATACA
switch fluorescence ratio: 1.3

GTTGTTTTGC
switch fluorescence ratio: 0.996

CTAAGCGCCA
switch fluorescence ratio: 1.02

GTTCGGGCTG
switch fluorescence ratio: 1.07

CCGGGGGTGA
switch fluorescence ratio: 1.09

TGTTTCGTC
switch fluorescence ratio: 1.01

ATAGGCGGAC
switch fluorescence ratio: 1.01

CATTCCGTTT
switch fluorescence ratio: 1.07

TTTTTACC
switch fluorescence ratio: 1.01

ATCCTATTCT
switch fluorescence ratio: 0.998

TAGGTGTCAG
switch fluorescence ratio: 1.04

TCGTGGACCC
switch fluorescence ratio: 1

AAGCTTGAAC
switch fluorescence ratio: 1.06

GACGCAGGGA
switch fluorescence ratio: 2.3

GACTTGGTAT
switch fluorescence ratio: 0.993

TCGGCATCGC
switch fluorescence ratio: 0.945

CGACAGATTG
switch fluorescence ratio: 1.04

CGCTCAGCTC
switch fluorescence ratio: 1.19

GTAATTGGTC
switch fluorescence ratio: 1.07

TCCTGTGCTA
switch fluorescence ratio: 3.82

TGGCTACCCC
switch fluorescence ratio: 2.12

AGATGAAGCG
switch fluorescence ratio: 0.993

TAGCCAGAGG
switch fluorescence ratio: 1.08

CATATTGGAA
switch fluorescence ratio: 0.989
